# ± gives the standard deviation of the averaged measurements. This is one part of the list.
# System: PfAP2-EXP AP2 domain (GST-tagged)
# Assay: gcPBM binding intensity (ln(normalized median fluorescence intensity)); higher = stronger DNA binding
# Summary of the method: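 In this array assay, P. falciparum DNA-binding domains with a GST tag, expressed in E. coli, were applied for 1 h to primer-extended double-stranded 36-bp intergenic genomic probes and negative controls on an Agilent 4 × 180k array. Bound protein was visualised with Alexa488 anti-GST antibody at 488 nm. Binding intensity is the highest Masliner-normalised natural-log median intensity across replicate spots of either probe orientation.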
row,Sequence,gcPBM binding intensity (ln)
1,CCTCATACGAAATATAAACACACATACAATAAATAA [CACACA_site8620],8.7 ± 0.59
2,TATGCACTTTAGGGCAGTACGTCAACATTATCTTTA [XGTACX_site3382],8.26 ± 0.17
3,TGTTAAAATTATTTGGTGCACTTGTTTTACCTTATT,9.3 ± 0.49
4,TATATTTATTATAACACACACATATAAATATTATAG [CACACA_site6726],8.51 ± 0.35
5,ATTTTTTTCATAGACACACACAATATATCTGTTTCC [CACACA_site3023],8.83 ± 0.52
6,ATAAATTTTTTTTTTTTTTTTTTTTTTTTTTTTTTT [CACACA_negctrl_site508],9.19 ± 0.057
7,ATATTATTATATATAGTGCATATTATTATTTTTATT,8.645 ± 0.049
8,CATTATTCTTTTAATATACACACTTTGTCTTTTCGC [CACACA_site2762],8.61 ± 0.47
9,TCTCATAGTAAACACACACACACACCCACATATATA [CACACA_site5034],8.74 ± 0.56
10,TCTTCTTTTTTTTTTTTGTATTATTATAAATATTAT [CACACA_negctrl_site1668],8.66 ± 0.38
11,GAAGTTTTCTTAAAGATGCACTTTTTAAAAATAAAA [GTGCAC_site9941],8.32 ± 0.17
12,AAGATAAAATGATGCACACAAAAGGGTGTAATATAT [CACACA_site1706],8.8 ± 0.41
13,TTTTTTTTTTTTAATGCACACAATATATAATATGTA [CACACA_site3694],8.85 ± 0.45
14,TTTTTTTTTTTTCAATCACACATGTTTTAATTATTT [CACACA_site5532],8.48 ± 0.58
15,TCATTTCACAGACACACACACACAAGATATTTCCTT [CACACA_site7774],8.7 ± 0.45
16,TGTAATAATATTTATGTGCACATATATTAAACTATA [GTGCAC_site9584],8.75 ± 0.11
17,TGTACGTTTTATAACACACACACAAAAAAAAAAAAA [CACACA_site3875],8.37 ± 0.43
18,TTTCTTCTTCAATGTTGTACTTTTCTCTTTTCTTAA [XGTACX_site1017],9.05 ± 0.49
19,GTTCATAAAAATTTTTGTACCCATAAAATATTCCTC [XGTACX_site8611],8.76 ± 0.39
20,TTTTTTTTTTTTAATTGTACTTATTAAAAAAAGCAA [XGTACX_site8713],8.25 ± 0.11
21,GTAGGTGTTTTTGGTTGTACATATAAATATATATAC [XGTACX_site3380],8.95 ± 0.37
22,AGATAAATATATTGTAGTACAGGAGCATAAATATAT [XGTACX_site8267],8.93 ± 0.35

row,Sequence,gcPBM binding intensity (ln)
1,TATTTTCATTATACTACTTCGAAGATACCCTTTTTT [CACACA_negctrl_site256],8.83 ± 0.54
2,GTTCTTCCTTGTAAATGTACAAATACAAAATGTTCC [XGTACX_site6738],8.96 ± 0.45
3,TATAAACATTAAAGGTGTACAATTTAATTTCAATTT [XGTACX_site2944],8.41 ± 0.37
4,ATATCATAAAAAATGTGTACATATATGAACATATAA [XGTACX_site2239],8.64 ± 0.24
5,TTAAGATCCTAAAAAACACACAATTGCGAATAATAA [CACACA_site6005],8.76 ± 0.54
6,GATATATATGTTCACACACACATGGAAATATATATA [CACACA_site4371],8.62 ± 0.4
7,GGAAATTAACAGAACACAATGTAACAATTTCTAACA [CACACA_negctrl_site1250],8.63 ± 0.51
8,TTTTTTTTTTTTTTTTTTTATGTATACATATTTATA [TGCATGCA_negctrl_site234],8.28 ± 0.43
9,TCATTTTAAAAAAATAGTACTTTAAGAAACTTTTAT [XGTACX_site602],8.02 ± 0.38
10,GATATTCTATAAAAAAGTACAAATATTTTAAAAAAT [XGTACX_site2177],8.55 ± 0.38
11,TAAATCCTTTACAACACACACACAAAAAAAAAAAAA [CACACA_site643],8.31 ± 0.48
12,AGCATTAATTATTTCACACATATATATATATATATA [CACACA_site4889],10.1 ± 0.41
13,ATCAGTGATTAGGTTATATATAAAAATGAACTAATA [GTGCAC_negctrl_site647],8.59 ± 0.54
14,ATATTCATGTTGATATGTACTTATTCTATATTGAAT [XGTACX_site8347],8.46 ± 0.46
15,TATATATATATATATATACACACTTGTGCAGAATAT [CACACA_site2216],10.2 ± 0.41
16,ATATTTATATATAGTAGTACTTTCAATAATTTAAAT [XGTACX_site7276],8.39 ± 0.3
17,AATACAAGAACTGACACACATACATACTACATTTTA [CACACA_site2829],8.7 ± 0.42
18,AAAGAAAGAAGACACACACACATATATAAATATCAA [CACACA_site7715],8.66 ± 0.59
19,TCTTAAAATATATAGGTGCAAAAAAAAAAAAAAAAA,8.31 ± 0.13
20,TATGATATTTATATGCGTACTGAAGTATGCCTATTT [XGTACX_site6133],8.56 ± 0.38
21,AAAAAATTAAAAATACGTACATATATACATATATAT [XGTACX_site4621],8.43 ± 0.2
22,TAAGAAATAAATAGTACACACATAGACACAGACACA [CACACA_site4934],8.91 ± 0.45

row,Sequence,gcPBM binding intensity (ln)
1,TTTAAATACAGACATACACACATACACCCACATATA [CACACA_site8078],8.9 ± 0.51
2,TGTTTTTATTTATTCTGTACTGAAGAGAGTTATATA [XGTACX_site8859],8.59 ± 0.38
3,GTATATGAGAAAAAAAGTACATGCACAAAATGTATA [XGTACX_site6441],9.21 ± 0.23
4,ATATAAATTTTTTATGAACACACAAATACAGACACT [CACACA_site8848],8.97 ± 0.53
5,AGATTAAAATAATATAAACACACATATACTTTTTTC [CACACA_site8085],8.23 ± 0.35
6,ATAATTAAAAAAAATTGTACATATAAATAGAAGATT [XGTACX_site230],8.87 ± 0.42
7,TAGGTATGCTCTCAATGTACATAAAATAATTTTACT [XGTACX_site6556],8.56 ± 0.33
8,AAAAAAAAAAGAATAGCACACACACCGATATAAATA [CACACA_site8111],8.88 ± 0.4
9,TTTATGTGTATTAAGTGTACACATATAGTGTATTTT [XGTACX_site999],8.42 ± 0.31
10,ATATATAAGGAAAAAAGTACTTATATTTTTTTTTTG [XGTACX_site1909],8.01 ± 0.33
11,AACAAATGTTAAATGTTTAAGGAGAAAATAAAGACA [CACACA_negctrl_site1163],8.77 ± 0.49
12,AAAACGAAACATCTGTGTATAAGTCTATATTATTAT [XGTACX_negctrl_site301],8.45 ± 0.51
13,GAAAACATAAAAATATGTACTTAAAATATATTTTGT [XGTACX_site868],8.38 ± 0.4
14,TGTCATGATACATACACACACATACCCATACCCATA [CACACA_site5211],8.81 ± 0.52
15,AAATAAAGCATGTGCTGTACAAACGAAATATTTAAG [XGTACX_site3146],9.09 ± 0.37
16,TTTTTTTTTTTTCATTGTACTCTTAAAAATTCAACT [XGTACX_site3154],8.55 ± 0.4
17,TAAAATGTACAGGACGCACACACATATATATATATA [CACACA_site3673],10.1 ± 0.22
18,TATTTTTTTTTTTTTTTACACACTATAGGGAAAAAA [CACACA_site8583],8.21 ± 0.34
19,ATTAAAATTTAAAATACACACACATATATATAATAT [CACACA_site8612],8.7 ± 0.42
20,AACAACAACTAATATGCACACATTTAAAAACAAAAT [CACACA_site2440],8.6 ± 0.54
21,TTATAATGAAATATATTCTTATTCTTTTTTTTTTTT [GTGCAC_negctrl_site384],8.01 ± 0.38
22,GCTTCTTAATATCATACACACATAGATATATTTATA [CACACA_site5676],8.82 ± 0.38

row,Sequence,gcPBM binding intensity (ln)
1,GGAGACTTTGTATTGGGTACGTATTTCAATGCATGT [XGTACX_site1596],8.73 ± 0.46
2,CTTCCTATATTTTACTGTACTTTTTTTTTTTTTTTT [XGTACX_site4016],8.93 ± 0.38
3,TTTTTTAACAAAAATAAAACATAACTGAATTAAAAG [GTGCAC_negctrl_site244],8.52 ± 0.36
4,CATACATACATACATACACACACATATATATATATA [CACACA_site8593],10.1 ± 0.22
5,AAACCTTTACATCGTTTGCACTATATTGATATGTGT [GTGCAC_site9686],8.86 ± 0.38
6,ACGAATTAAATTTGCTGTACCAAAAAGAAAACAATA [XGTACX_site5511],8.65 ± 0.39
7,ATAATATATTTATAATGTACAAACCATTTGTATTAA [XGTACX_site4370],8.3 ± 0.4
8,TGGTTTCAATAATTAATAAAATATATTATTGTGAAA [CACACA_negctrl_site442],7.95 ± 0.41
9,TCTAACATATAATATTCACACACATATATATATTAT [CACACA_site8236],8.63 ± 0.5
10,ATTATTATTATATTTTGTACATATGTAACAATATAT [XGTACX_site5780],8.57 ± 0.25
11,TGCATATTACTTTTTCACATAAAAATGATCCGATTA [GTGCAC_negctrl_site526],8.4 ± 0.42
12,ATATTATGAATTGTCACACATATATTTAAAAATGTA [CACACA_site4852],8.32 ± 0.38
13,TAAATATGTGTATGTAGTACATAGTGTTTTTTTTTT [XGTACX_site3748],8.13 ± 0.31
14,AAAATATAAAAATGAAGTACAAAAAAAAAAAAAAAA [XGTACX_site8132],8.41 ± 0.15
15,GTTATACACATCAACACACACATACAACGTGGTGTA [CACACA_site6677],8.43 ± 0.28
16,AAAAAATGACTTAATATGAGCATATATTATGTTGTT [CACACA_negctrl_site1609],8.23 ± 0.49
17,AAAAAAAATTAAATAAATAAATATACACATATATAT [GTGCAC_negctrl_site394],8.27 ± 0.24
18,CATTAAAATTGAGAGATGCACTTTTTAAGACCTTGT,8.42 ± 0.2
19,AAAACATTGTTTATGTGTACATAATTATATTTACAA [XGTACX_site6926],8.45 ± 0.39
20,TTTTTTTTTTTTTTTTTTTTACCCCTTTTTCAAAAA [CACACA_negctrl_site1524],8.15 ± 0.43
21,AACTAATTCATGTTATATTAGATAAAAAAAAAAAAA [TGCATGCA_negctrl_site340],8.38 ± 0.4
22,ATATTTTTTAATTTTACACACCATATAAAATAATTC [CACACA_site7339],8.42 ± 0.4
